Laboratory results reported in PubChem BioAssay AID624296 (National Center for Advancing Translational Sciences (NCATS), 2012).
Out of some 350,000 compounds screened, about 9,900 (2.8%) were called active. Inconclusive results, whose numbers are uncertain, are shown with a selection of clear calls. The call rests on the fitted dose curve; in most records, active means well fitted activation curve with a large enough effect; inconclusive means small, poorly fitted or top-dose-only effect; inactive means no such curve, though single readings can be large or run the other way. No potency is given beside an inconclusive call; the fits are too rough.

Test: A quantitative high throughput screen for small molecules that induce DNA re-replication in MCF 10a normal breast cells. Further: nearly all actives have a fitted effect of over 50% in size. On activity, positive = re-replication: % of control where 0% means no effect.
Conditions: MCF 10A DNA re-replication, Hoechst nuclear intensity, 48 h; activity, positive = re-replication: at 46.1 µM (top of the series)
Potency means the concentration at half of the fitted maximal effect; tags describe the fitted curve by direction and shape.

SMILES | Potency | activity, positive = re-replication
O=C(CSc1nc2[nH]c(=O)cc(O)c2s1)Nc1cc(Cl)cc(Cl)c1 | inconclusive [activator, single point] | –
CCOC(=O)C1CCN(C(=O)c2ccc3c(=O)n4c(nc3c2)CCCCC4)CC1 | inconclusive [activator, partial curve, poor fit] | –
Cc1ccc(S(=O)(=O)N2CCN(C(=O)C(C)Cn3cncn3)CC2)cc1 (stereo not given) | – | inactive: -8.69%
CCC(CO)Oc1cc(NC(=O)c2ccccc2Cl)c2ncn(C(C)C)c2c1 (stereo not given) | – | inactive: 3.22%
CCC(Oc1ccccc1)C(=O)N1CCN(S(=O)(=O)c2ccccc2)CC1 (stereo not given) | – | inactive: 15.9%
CCc1nnc(NS(=O)(=O)c2ccc(NCc3cc(Cl)cc(Cl)c3O)cc2)s1 | inconclusive [activator, single point] | –
Cc1ccc(N(Cc2cc3ccc(C)cc3[nH]c2=O)C(=O)c2ccco2)c(C)c1 | – | inactive: 24.3%
O=C(Nc1nnc(SCCC2OCCO2)s1)C1CC(=O)N(c2ccc(F)cc2)C1 (stereo not given) | – | inactive: 5.94%
CCOc1ccc(NC(=O)NC2CCOC(C)(C)C2)cc1 (stereo not given) | inconclusive [activator, single point] | –
COc1cc2c(c(OC)c1OC)C(c1ccc3c(c1)OCO3)CC(=O)O2 (stereo not given) | inconclusive [activator, partial curve, poor fit] | –
CC1Nc2ncnc(N3CCN(c4ccccc4)CC3)c2N(Cc2ccc(Br)cc2)C1=O (stereo not given) | active: 16.4 µM | –
Cc1sc(N(C(=O)CCc2ccccc2)c2ccc(C(=O)O)cc2)nc1-c1ccccc1 | inconclusive [activator, partial curve] | –
CCCc1cc(C(=O)Nc2ccc(C(=O)c3ccc(C)cc3)cc2)n(C)n1 | active: 18.4 µM | –
Cc1cc(=O)[nH]c2c(C)cc(S(=O)(=O)N3CCCCC3)cc12 | – | inactive: 18.5%
CS(=O)(=O)c1ccc(NC(=O)c2cc3c(cc2Cl)N2CCCCCC2=NS3(=O)=O)cc1 | – | inactive: -4.57%
COCCCNC(=S)N/N=C/c1ccc(N(C)C)cc1Cl | inconclusive [activator, full curve, poor fit] | –
CN1CCN(c2nc3cc(C(F)(F)F)ccc3n3cccc23)CC1 | inconclusive [activator, single point] | –
CC1CCN(Cc2c(O)ccc3c(=O)c(-c4nc5ccccc5s4)c(N)oc23)CC1 | – | inactive: 18.9%
Cc1ccc(N(CC(=O)NC(C)C)C(=O)CCC(=O)Nc2ccccn2)cc1 | inconclusive [activator, single point] | –
COc1ccc(N(C(C)C(=O)N2CCC(Cc3ccccc3)CC2)S(C)(=O)=O)cc1 (stereo not given) | – | inactive: 29.8%
O=C(Nc1ccc(Br)c(C(F)(F)F)c1)c1ccc(C(F)(F)F)cc1 | active: 14.6 µM | –
NS(=O)(=O)c1cc(C(=O)OCC(=O)Nc2ccc3c(c2)OCO3)ccc1Cl | – | inactive: 0.115%
CCOc1ccc(S(=O)(=O)N2CCCC(C(=O)NCc3ccncc3)C2)cc1 (stereo not given) | – | inactive: -1.24%

SMILES | Potency | activity, positive = re-replication
CCN1C(=NCc2ccco2)N[C@@H](c2cccc(C(F)(F)F)c2)C(C(=O)OC)=C1C | inconclusive [activator, single point] | –
O=C(COc1ccccc1)Nc1cccc(-c2nc3cc4ccccc4cc3[nH]2)c1 | active: 14.6 µM | –
COc1cccc(N2CCN(CC(=O)c3c(C)[nH]c4ccccc34)CC2)c1 | – | inactive: 22.9%
Cc1cccc(N/C(N)=N/c2nc(CSc3ccc(Cl)cc3)cc(=O)[nH]2)c1 | active: 3.66 µM | –
CN(C)c1ccc(-c2noc(C3CCN(S(=O)(=O)c4cccc(Cl)c4)CC3)n2)cc1 | inconclusive [activator, partial curve] | –
CN1CCN(CCC(=O)N/N=C/c2cc([N+](=O)[O-])ccc2O)CC1 | inconclusive [activator, partial curve, poor fit] | –
CCN(C1CCCCC1)S(=O)(=O)c1ccc(S(=O)(=O)N2CCN(CCC#N)CC2)cc1 | – | inactive: -2.37%
CN(CC(=O)Nc1ccccc1Cl)C(=O)c1cccc(S(=O)(=O)N2CCN(Cc3ccccc3)CC2)c1 | inconclusive [activator, partial curve, poor fit] | –
NC(=O)c1ccc(-n2nnnc2SCC(=O)Nc2ccccc2-c2ccccc2)cc1 | inconclusive [activator, partial curve, poor fit] | –
O=[N+]([O-])c1ccc(O)c(-c2cc(C(F)(F)F)nc(-c3ccccc3)n2)c1 | inconclusive [activator, full curve, poor fit] | –
O=C(Nc1ccc(OC(F)(F)F)cc1)N1CCN(c2ccnc3cc(Cl)ccc23)CC1 | inconclusive [activator, single point] | –
CN(C)S(=O)(=O)c1ccc(Cl)c(C(=O)OCC(=O)c2ccco2)c1 | – | inactive: -7.91%
O=C(Nc1ncc(S(=O)(=O)c2ccc([N+](=O)[O-])cc2)s1)c1cccnc1 | inconclusive [activator, single point] | –
O=C(CSc1ncnc2c1cnn2-c1ccccc1)Nc1ccc2c(c1)OCO2 | active: 14.6 µM | –
Cc1ccc(NS(=O)(=O)c2csc(C(N)=O)c2)cc1C | inconclusive [activator, partial curve, poor fit] | –
COc1cc(SC)ccc1C(=O)Nc1ccc2ncccc2c1 | inconclusive [activator, partial curve, poor fit] | –
CCOc1ccc(N2CC(C(=O)Nc3ccc4c(c3)OCCO4)CC2=O)cc1 (stereo not given) | – | inactive: -0.339%
CC1=NN(C(=O)CCc2ccccc2)C(c2ccccc2)C1 (stereo not given) | – | inactive: 7.62%
Fc1ccc(-c2nc(-c3cccs3)[nH]c2-c2ccc(F)cc2)cc1 | inconclusive [activator, single point] | –
CCn1c(SCC(=O)N2CCC(C)CC2)nnc1-c1ccco1 | – | inactive: -14.3%
CNC(=O)c1ccc(Nc2nc(-c3ccccc3)nc3ccccc23)cc1 | inconclusive [activator, single point] | –
CC1C(=O)N2CCCc3cc(NC(=O)C(=O)NCc4ccc5c(c4)OCO5)cc1c32 (stereo not given) | inconclusive [activator, partial curve, poor fit] | –
